{"source": "paper PMC6919601", "about": "“Identification of Plasmodium dipeptidyl aminopeptidase allosteric inhibitors by high throughput screening” (PLoS ONE, 2019)", "note": "The campaign covered roughly 110,000 compounds. About 230 (0.21%) showed an effect of 50% or more. The list shows a part of the results.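 Note: 30 min substrate incubation versus DMSO and 10 µM JCP410 controls.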", "data": [{"molecular_target": "DPAP1 (Plasmodium falciparum, UniProt Q8IIJ9)", "sequence (Q8IIJ9 whole entry, looked up)": "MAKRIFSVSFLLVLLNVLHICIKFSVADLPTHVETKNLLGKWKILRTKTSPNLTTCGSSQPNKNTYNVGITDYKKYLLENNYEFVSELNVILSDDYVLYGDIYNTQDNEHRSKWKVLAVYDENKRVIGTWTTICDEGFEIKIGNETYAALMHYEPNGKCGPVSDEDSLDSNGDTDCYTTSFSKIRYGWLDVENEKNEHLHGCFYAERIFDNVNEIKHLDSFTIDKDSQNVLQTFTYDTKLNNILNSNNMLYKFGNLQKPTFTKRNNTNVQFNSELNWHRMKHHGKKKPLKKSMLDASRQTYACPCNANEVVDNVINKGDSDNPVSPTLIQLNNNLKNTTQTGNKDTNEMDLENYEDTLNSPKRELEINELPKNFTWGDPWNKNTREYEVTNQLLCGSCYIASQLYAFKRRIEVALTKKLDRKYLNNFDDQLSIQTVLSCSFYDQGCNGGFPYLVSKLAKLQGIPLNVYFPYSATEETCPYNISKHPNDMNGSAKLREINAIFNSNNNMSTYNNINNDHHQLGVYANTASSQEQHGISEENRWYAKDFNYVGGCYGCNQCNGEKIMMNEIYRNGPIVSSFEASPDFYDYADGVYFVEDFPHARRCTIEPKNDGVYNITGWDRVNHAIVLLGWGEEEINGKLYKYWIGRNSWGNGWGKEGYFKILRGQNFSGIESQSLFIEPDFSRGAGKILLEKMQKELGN", "experiment": "primary screen, percent inhibition; read by cleavage of a fluorogenic dipeptide substrate; higher = more effect of the substance", "design": "species or system P. falciparum D10 trophozoite lysates; single well", "units": {"% Inhibition @ 10 uM": "%"}, "values": [{"smiles": "CC(C)C(NC(=O)C12CC3CC(CC(C3)C1)C2)C(=O)Nc1nc2ccccc2s1", "note": "(stereo not shown)", "% Inhibition @ 10 uM": -3.06}, {"smiles": "CC(C)(C)c1cc(-c2ccccc2)no1", "% Inhibition @ 10 uM": -1.5}, {"smiles": "COc1ccc(-c2nc(CSCC(=O)O)c(C)o2)cc1", "% Inhibition @ 10 uM": -1.99}, {"smiles": "Cc1ccc2c(c1)cc1c(=O)n(Cc3cccc(F)c3)nc(C)n12", "% Inhibition @ 10 uM": -5.63}, {"smiles": "Cc1cc2cc(CNC(=S)NCc3ccccc3)ccc2[nH]1", "% Inhibition @ 10 uM": -5.58}, {"smiles": "O=C1c2ccccc2C(=O)N1Cc1ccsc1-c1ccccc1", "% Inhibition @ 10 uM": -2.65}, {"smiles": "COCCCNC(=O)c1cc(C)nc2c1c(C)nn2-c1ccccc1Cl", "% Inhibition @ 10 uM": -4.97}, {"smiles": "Cc1nonc1NC(=O)CN1C(=O)c2ccccc2C1=O", "% Inhibition @ 10 uM": 4.07}, {"smiles": "COCCCNCc1c(C(=O)O)n(Cc2ccc(F)cc2Cl)c2ccccc12", "% Inhibition @ 10 uM": 1.93}, {"smiles": "CN(C)S(=O)(=O)N1CCCN(S(=O)(=O)N(C)C)CC1", "% Inhibition @ 10 uM": -5.65}, {"smiles": "CCOC(=O)C1=C(O)/C(=C\\c2ccc(OCc3ccccc3)cc2)N=C1C", "% Inhibition @ 10 uM": 0.131}, {"smiles": "CCOC(=O)N1CCN(CC(O)COc2ccc(C(C)C)cc2)CC1", "note": "(stereo not shown)", "% Inhibition @ 10 uM": -0.088}, {"smiles": "CN(C)c1ccc2c(c1)OC(N)=C(C#N)C2c1cccc(C(F)(F)F)c1", "note": "(stereo not shown)", "% Inhibition @ 10 uM": 1.26}, {"smiles": "CCCCN(C)C(=O)/C(=C/c1cn(CC)c2ccccc12)NC(=O)c1cc(OC)c(OC)c(OC)c1", "% Inhibition @ 10 uM": 3.24}, {"smiles": "Cc1sc2ncnc(Nc3ccc4c(c3)OCO4)c2c1C", "% Inhibition @ 10 uM": 5.44}, {"smiles": "O=C1NC(=S)/C(=C/c2ccccc2Cl)S1", "% Inhibition @ 10 uM": 2.16}, {"smiles": "Cc1cccc(CNCc2c(C(=O)O)c(C)n(Cc3c(F)cccc3Cl)c2C)c1", "% Inhibition @ 10 uM": 2.99}, {"smiles": "Cc1oc(-c2ccc(Cl)cc2)nc1CSc1nc2ccncc2[nH]1", "% Inhibition @ 10 uM": -2.37}, {"smiles": "CCOc1ccc(-c2cn3c(n2)sc2cc(C(=O)NCCC(C)C)ccc23)cc1", "% Inhibition @ 10 uM": -1.19}, {"smiles": "CCOC(=O)c1ccc(-n2c(C)c3c(C)nnc(C)c3c2C)cc1", "% Inhibition @ 10 uM": 4.79}, {"smiles": "O=C(Cc1ccc(Cl)cc1)Nc1ccccn1", "% Inhibition @ 10 uM": -2.19}, {"smiles": "CS(=O)(=O)CCC(C(=O)NCc1ccc2c(c1)OCO2)N1Cc2ccccc2C1=O", "note": "(stereo not shown)", "% Inhibition @ 10 uM": -3.81}, {"smiles": "COc1cccc(OCC(=O)N2CCN(C)CC2)c1", "% Inhibition @ 10 uM": 6.76}, {"smiles": "O=C(CN1C(=O)S/C(=C\\c2ccco2)C1=O)c1ccc(Br)cc1", "% Inhibition @ 10 uM": -7.09}, {"smiles": "Cn1ccnc1SCC(O)c1ccc(-c2ccccc2)cc1", "note": "(stereo not shown)", "% Inhibition @ 10 uM": 3.66}, {"smiles": "Oc1nc(-c2ccncc2)nc2ccccc12", "% Inhibition @ 10 uM": 5.35}, {"smiles": "CCOC(=O)N1CCC(N2CCN(c3cccc(Cl)c3)CC2)CC1", "% Inhibition @ 10 uM": 1.57}, {"smiles": "COc1cccc(/N=C2\\SC(C(=O)Nc3ccc(C(=O)O)cc3)CC(=O)N2C)c1", "note": "(stereo not shown)", "% Inhibition @ 10 uM": 5.25}, {"smiles": "COc1ccc(C2=CSC(/N=C/c3ccc(F)cc3)=NN2)cc1", "% Inhibition @ 10 uM": 8.01}, {"smiles": "COc1ccc(S(=O)(=O)N2CCN(C)CC2)cc1", "% Inhibition @ 10 uM": -4.4}, {"smiles": "Cc1ccc(SCC(=O)NC(C)(C)C)cc1", "% Inhibition @ 10 uM": -4.48}, {"smiles": "O=C(Nc1cnc2ccccc2c1)C12CC3CC(CC(C3)C1)C2", "% Inhibition @ 10 uM": -2.22}, {"smiles": "O=C(Nc1nccs1)C1COc2ccccc2O1", "note": "(stereo not shown)", "% Inhibition @ 10 uM": -6.06}, {"smiles": "CCS(=O)(=O)c1nc(S(=O)(=O)c2ccc(C)cc2)c(NCCc2ccccc2)s1", "% Inhibition @ 10 uM": -5.89}, {"smiles": "CCCN(CCC)CC(=O)Nc1cc(C)c2c(=O)oc3ccccc3c2n1", "% Inhibition @ 10 uM": -0.984}, {"smiles": "CCn1c(SC(C)C)nc2sc3c(c2c1=O)CCC3", "% Inhibition @ 10 uM": 4.3}, {"smiles": "CSc1ccc(/C=C/c2cc(C(F)(F)F)nc(O)n2)cc1", "% Inhibition @ 10 uM": 2.05}, {"smiles": "O=C1CC(=O)NC(NOCc2ccc([N+](=O)[O-])cc2)=N1", "% Inhibition @ 10 uM": 2.81}, {"smiles": "O=C(Nc1cccnc1)c1cc(-c2ccc3c(c2)OCO3)on1", "% Inhibition @ 10 uM": -2.47}, {"smiles": "Cc1cccc(NC(=O)c2ccc3c(c2)C(=O)N(Cc2cccnc2)C3=O)c1C", "% Inhibition @ 10 uM": -2.74}, {"smiles": "COc1ccc(OC)c(-c2cc(C(=O)N3CCN(c4ncccn4)CC3)c3ccccc3n2)c1", "% Inhibition @ 10 uM": 0.64}, {"smiles": "CCCN1CCC(NCc2ccccc2Cl)CC1", "% Inhibition @ 10 uM": -9.33}, {"smiles": "C=CCOc1c(Br)cc(CNc2ccc3[nH]c(O)nc3c2)cc1OCC", "% Inhibition @ 10 uM": -3.23}, {"smiles": "CC1(C)c2ccccc2N2CCC(=O)NC21/C=C/c1cccnc1", "note": "(stereo not shown)", "% Inhibition @ 10 uM": 3.86}, {"smiles": "CC(C)c1ccc(C2C(C(=O)c3ccc(Br)cc3)=C(O)C(=O)N2c2nccs2)cc1", "note": "(stereo not shown)", "% Inhibition @ 10 uM": 3.6}, {"smiles": "O=C(Nc1ccc(S(=O)(=O)NC2CCCC2)cc1)c1ccc(Cl)cc1Cl", "% Inhibition @ 10 uM": 5.07}, {"smiles": "CCCOC(=O)c1ccc(OCC(O)CN2CCN(C(=O)c3ccccc3)CC2)cc1", "note": "(stereo not shown)", "% Inhibition @ 10 uM": -4.74}, {"smiles": "CCCCOc1cccc(C2c3c(oc4ccccc4c3=O)C(=O)N2CCCN2CCOCC2)c1", "note": "(stereo not shown)", "% Inhibition @ 10 uM": -1.11}, {"smiles": "Fc1ccccc1OCCCCN1CCCC1", "% Inhibition @ 10 uM": 2.26}, {"smiles": "COc1ccc(OCC(=O)Nc2sc(Cc3ccccc3)c(C)c2C(N)=O)cc1", "% Inhibition @ 10 uM": 0.795}, {"smiles": "O[C@]12CCCC[C@@H]1[C@@H](c1cccc(Cl)c1)NCC2", "% Inhibition @ 10 uM": -2.08}, {"smiles": "Cc1ccc2c(CC(=O)NCc3ccc4c(c3)OCO4)coc2c1C", "% Inhibition @ 10 uM": 5.7}, {"smiles": "Cc1nc2nc(SCC(=O)NCCN3CCCCCC3)nn2c(C)c1Cc1ccccc1", "% Inhibition @ 10 uM": -1.29}, {"smiles": "Cc1cccc(C)c1NC(=O)C(NC(=O)CN1C(=O)c2ccccc2C1=O)c1ccc(Cl)cc1Cl", "note": "(stereo not shown)", "% Inhibition @ 10 uM": -1.45}, {"smiles": "CCCCOc1ccc(N2C(=O)CC(N3CCOCC3)C2=O)cc1", "note": "(stereo not shown)", "% Inhibition @ 10 uM": 2.67}, {"smiles": "COc1ccccc1N/C(C)=C1/C(=O)NC(=O)N(C)C1=O", "% Inhibition @ 10 uM": -6.03}, {"smiles": "Cc1nnc2n1NC(c1ccc(Cl)cc1)C(C(=O)NCC(C)C)S2", "note": "(stereo not shown)", "% Inhibition @ 10 uM": -5.41}, {"smiles": "CCCc1ccc(OCC(O)CNC(C)C)cc1", "note": "(stereo not shown)", "% Inhibition @ 10 uM": 5.61}, {"smiles": "CC1=CSC2=NC(=O)/C(=C/c3cc(C)n(Cc4ccccc4)c3C)C(=N)N12", "% Inhibition @ 10 uM": -1.17}, {"smiles": "CCC(C)NC(=O)c1cnn(-c2ccc(F)cc2)c1C1CCN(C(=O)OC(C)(C)C)CC1", "note": "(stereo not shown)", "% Inhibition @ 10 uM": 3.11}, {"smiles": "CCOC(=O)c1ccc(-c2ccc(/C=C3/C(=N)N4C(=NC3=O)SN=C4S(C)(=O)=O)o2)cc1", "% Inhibition @ 10 uM": -5.27}, {"smiles": "OC(C#CCN1CCCC1)c1ccccc1", "note": "(stereo not shown)", "% Inhibition @ 10 uM": -3.9}, {"smiles": "O=C(c1cc2nc(-c3cccs3)cc(C(F)(F)F)n2n1)N1CCCCCC1", "% Inhibition @ 10 uM": 0.0538}, {"smiles": "CC1CN(S(=O)(=O)c2ccc(Cl)c(C(=O)Nc3cccc(O)c3)c2)CC(C)O1", "note": "(stereo not shown)", "% Inhibition @ 10 uM": -6.38}]}]}
